{"source": "PubChem BioAssay AID1458", "about": "(National Center for Advancing Translational Sciences (NCATS), 2008)", "note": "Out of some 210,000 compounds screened, about 5,900 (2.8%) were called active. The inconclusive results got no clear call from the source; some entries with a clear call stand among them for comparison. Calls come from the whole dose curve; as a rule, active = well fitted activation curve with a large enough effect; inconclusive = small, poorly fitted or top-dose-only effect; inactive = no such curve, though single readings can be large or run the other way. Potencies of inconclusive entries are doubtful fits and often do not repeat. Potency is the fitted concentration of half-maximal effect; tags give direction and shape of the fitted curve.", "data": [{"experiment": "qHTS Assay for Enhancers of SMN2 Splice Variant Expression; note: nearly all actives have a fitted effect of over 55% in size; for activity change, positive = activation: % of control where 0% means no effect", "settings": "HEK293 SMN2-luciferase splicing reporter, luminescence, 30-36 h; activity change, positive = activation: at 46.1 µM (top of the series)", "outline": "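HEK293 cells carry an SMN2 […]–luciferase reporter in which exon 7 inclusion puts luciferase in frame. Cells were plated 10-12 h before compound addition, then incubated 30-36 h at 37C. ONE-Glo luminescence was read; sodium butyrate at 4.5 mM final served as control.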", "values": [{"smiles": "COc1ccc(Oc2ncc3ncc(=O)n(C[C@H]4CCCO4)c3n2)cc1", "activity change, positive = activation": "inactive: -12.2%"}, {"smiles": "N#CC1=C(SCC(=O)NC23CC4CC(CC(C4)C2)C3)NC(=O)C(C#N)C12CCCCC2", "note": "(centres undefined)", "activity change, positive = activation": "inactive: -67.9%"}, {"smiles": "Cc1ccc2nc(-c3ccc(NC(=O)CCN4C(=O)c5ccccc5C4=O)cc3)sc2c1", "Potency": "active: 0.316 µM"}, {"smiles": "COc1ccc(Br)cc1/C=N/Nc1cccc(C(=O)O)c1", "Potency": "active: 11.2 µM"}, {"smiles": "Cc1noc(NS(=O)(=O)c2ccc(NC(=O)CCn3c(=O)oc4ccccc43)cc2)c1C", "Potency": "inconclusive: 4.47 µM [activator, partial curve]"}, {"smiles": "CCc1cccc(NC(=O)C2CCCC2)c1", "Potency": "inconclusive: 14.1 µM [activator, single point]"}, {"smiles": "Cc1cc(OCC(=O)Nc2c(C(=O)c3ccccc3)oc3ccccc23)cc(C)c1Cl", "activity change, positive = activation": "inactive: 18.3%"}, {"smiles": "c1ccc(Nc2nc(-c3ccncc3)cs2)nc1", "Potency": "active: 12.6 µM"}, {"smiles": "Cc1cc(NC(=O)CCS(=O)(=O)c2nc(-c3ccccc3)cc(C(F)(F)F)n2)no1", "Potency": "inconclusive: 17.8 µM [activator, single point]"}, {"smiles": "COc1ccccc1OCCSc1nnnn1-c1ccc(C)cc1", "Potency": "inconclusive: 14.1 µM [activator, single point]"}, {"smiles": "CC(=O)c1ccc(NC(=O)C2CC(=O)N(Cc3ccccc3)C2)cc1", "note": "(centres undefined)", "Potency": "inconclusive: 35.5 µM [activator, single point]"}, {"smiles": "CCCNc1ccc(S(=O)(=O)N(CC)CC)cn1", "Potency": "active: 5.62 µM"}, {"smiles": "Cc1cccc(NC(=O)COc2ccc3oc4c(c3c2)CCCC4)n1", "activity change, positive = activation": "inactive: 2.94%"}, {"smiles": "COc1cc(SC)ccc1C(=O)NCCOc1ccc(F)cc1", "Potency": "active: 14.1 µM"}, {"smiles": "O=c1oc2ccccc2cc1-c1csc(NN=C2CCCCC2)n1", "Potency": "inconclusive: 0.0089 µM [activator, full curve, poor fit]"}, {"smiles": "CCC(C)(C)n1nnnc1C(c1cc2ccc(OC)cc2[nH]c1=O)N1CCN(C2CCCCC2)CC1", "note": "(centres undefined)", "Potency": "inconclusive: 11.2 µM [activator, single point]"}, {"smiles": "COc1ccccc1/C=N/N(C(C)=O)c1nc(-c2ccc(F)cc2)cs1", "Potency": "inconclusive: 14.1 µM [activator, partial curve]"}, {"smiles": "CCN1C(=O)c2ccccc2Sc2ccc(C(=O)NCCN3CCOCC3)cc21", "Potency": "inconclusive: 5.62 µM [activator, single point]"}, {"smiles": "COc1ccc2oc(=O)c(C(=O)Nc3cccc(C(=O)O)c3)cc2c1", "Potency": "active: 0.794 µM"}, {"smiles": "CC(C)c1nc2oc3c(NCC4CCCO4)ncnc3c2c2c1CCC2", "note": "(centres undefined)", "Potency": "inconclusive: 35.5 µM [activator, single point]"}, {"smiles": "COc1ccc(CN=C2Nc3ccccc3CS2)cc1", "Potency": "active: 3.55 µM"}, {"smiles": "O=C(OCn1ncc(Cl)c(Cl)c1=O)c1ccc(C(F)(F)F)cc1", "activity change, positive = activation": "inactive: 19.9%"}, {"smiles": "O=C(Nc1ccc(F)cc1F)c1ccc2c(c1)CCN2S(=O)(=O)c1ccc(Cl)cc1", "activity change, positive = activation": "inactive: 2.27%"}, {"smiles": "CCOC(=O)c1sc(NC(=O)c2ccc(S(=O)(=O)N3CCCCC3)cc2)nc1-c1ccccc1", "activity change, positive = activation": "inactive: -60.6%"}, {"smiles": "Cc1cc(C)c2nc(SCC(=O)Nc3ccc(S(=O)(=O)N4CCCC4)cc3)c(C)cc2c1", "Potency": "inconclusive: 5.01 µM [activator, full curve, poor fit]"}, {"smiles": "CC(C)c1ccc(NC(=O)NN2CCOCC2)cc1", "Potency": "active: 12.6 µM"}, {"smiles": "Clc1ccc(CONc2ncnc3nonc23)c(Cl)c1", "Potency": "inconclusive: 8.91 µM [activator, partial curve, poor fit]"}, {"smiles": "COc1cc(NC(=O)c2cc3c(C)nc4ccccc4c3o2)cc(OC)c1OC", "activity change, positive = activation": "inactive: 1.01%"}, {"smiles": "Cc1ccc(OCn2c(=O)sc3ccccc32)cc1", "Potency": "inconclusive: 11.2 µM [activator, partial curve]"}, {"smiles": "Cc1ccccc1NC(=O)CSc1nc2n(n1)CCCCC2", "Potency": "inconclusive: 5.01 µM [activator, single point]"}, {"smiles": "CCN(CC)c1ccc(NC(=O)c2sc3ccccc3c2Cl)cc1", "activity change, positive = activation": "inactive: -7.47%"}, {"smiles": "CCOC(=O)c1oc2ccc3c(c2c1C)C(=O)CC1(CCN(C(=O)OCC)CC1)O3", "activity change, positive = activation": "inactive: -46.8%"}, {"smiles": "O=c1c2c(nc3cc(-c4ccccc4)[nH]n13)CCS2", "Potency": "inconclusive: 12.6 µM [activator, single point]"}, {"smiles": "Cc1ccc(C(=O)O/N=C(\\N)c2cccnc2)cc1[N+](=O)[O-]", "Potency": "inconclusive: 15.8 µM [activator, partial curve, poor fit]"}, {"smiles": "CCOC(=O)c1c(N)n(C2CC(C)(C)NC(C)(C)C2)c2nc3ccccc3nc12", "Potency": "inconclusive: 10 µM [activator, partial curve, poor fit]"}, {"smiles": "COc1ccc(NC(=O)Nc2cc(C)ccc2F)cc1", "Potency": "inconclusive: 14.1 µM [activator, single point]"}, {"smiles": "O=c1[nH]c(CSc2ccccn2)nc2c1oc1ccccc12", "Potency": "active: 1 µM"}, {"smiles": "COc1ccc(Br)cc1S(=O)(=O)NCCN1CCOCC1", "Potency": "inconclusive: 0.316 µM [activator, single point]"}, {"smiles": "O=C(O)c1[nH]c2ccccc2c1NS(=O)(=O)Cc1ccccc1", "Potency": "inconclusive: 35.5 µM [activator, partial curve, poor fit]"}, {"smiles": "CC[C@H](C)[C@@H](NC(=O)O[C@@H]1C(=O)c2cc(OC)ccc2O[C@H]1c1ccc(OC)c(Br)c1)C(=O)OC", "Potency": "inconclusive: 11.2 µM [activator, single point]"}, {"smiles": "CCOC(=O)/C(=N/Nc1ccc(Cl)cc1)S(=O)(=O)c1ccccc1", "Potency": "inconclusive: 3.55 µM [activator, single point]"}, {"smiles": "Cc1cc(C(=O)CSc2nc3ccccc3[nH]2)c(C)n1C", "Potency": "active: 3.16 µM"}, {"smiles": "COCCCNC(=O)CCC(=O)Nc1ccc2nc(N3CCOCC3)cc(C)c2c1", "Potency": "inconclusive: 35.5 µM [activator, single point]"}, {"smiles": "CCOCCn1c(N2CCN(c3ccc(OC)cc3)CC2)nc2c1c(=O)n(C)c(=O)n2C", "activity change, positive = activation": "inactive: -7.73%"}, {"smiles": "c1ccc(CCN2CCN(c3ncnc4c3cnn4-c3ccccc3)CC2)cc1", "activity change, positive = activation": "inactive: -3.94%"}, {"smiles": "COc1ccc(-c2cn3cc(C)ccc3n2)cc1F", "Potency": "active: 0.562 µM"}, {"smiles": "COc1ccc(N(CC(=O)O)S(C)(=O)=O)cc1OC", "Potency": "inconclusive: 0.0398 µM [activator, full curve, poor fit]"}, {"smiles": "COc1ccc(C(=O)/C=C/c2cccs2)c(OC(=O)c2cccc([N+](=O)[O-])c2)c1", "Potency": "inconclusive: 35.5 µM [activator, single point]"}, {"smiles": "O=c1[nH]c(CN2CCN(c3ccccc3)CC2)nc2scc(-c3ccccc3)c12", "Potency": "inconclusive: 35.5 µM [activator, single point]"}, {"smiles": "C=CCNc1ncnc2c1cnn2-c1ccc(Cl)cc1", "Potency": "active: 2.82 µM"}, {"smiles": "CC(=O)N1c2ccccc2Oc2cc3ccccc3cc21", "Potency": "inconclusive: 17.8 µM [activator, partial curve, poor fit]"}, {"smiles": "COc1ccc(OC)c(C=Nc2ccccc2-c2nc3ccccc3[nH]2)c1", "Potency": "active: 12.6 µM"}, {"smiles": "CCCCOC(=O)CSc1ncnc2sc3c(c12)CCC(C)C3", "note": "(centres undefined)", "activity change, positive = activation": "inactive: 2.8%"}, {"smiles": "Nc1nonc1-c1noc(COc2ccccc2Cl)n1", "Potency": "active: 11.2 µM"}, {"smiles": "CCOC(=O)c1c(C)[nH]c(C(=O)NCc2ccccc2OC)c1C", "Potency": "active: 10 µM"}, {"smiles": "COc1ccc(-c2cc(C(=O)NC(Cc3c[nH]c4ccccc34)C(=O)O)c(C)o2)cc1OC", "note": "(centres undefined)", "Potency": "inconclusive: 35.5 µM [activator, single point]"}, {"smiles": "COc1cc(C2CC(=O)Nc3ccc4ccccc4c32)ccc1OC(=O)C(C)C", "note": "(centres undefined)", "activity change, positive = activation": "inactive: 4.08%"}, {"smiles": "CSc1ccc(-c2nnn(Cc3ccccn3)n2)cc1", "Potency": "inconclusive: 20 µM [activator, single point]"}, {"smiles": "CC(C)(C)NC(=O)CCCSc1nc2ccccc2s1", "Potency": "inconclusive: 14.1 µM [activator, partial curve]"}, {"smiles": "CCC(C)NC(=O)CCCc1ccccc1", "note": "(centres undefined)", "Potency": "inconclusive: 17.8 µM [activator, partial curve, poor fit]"}, {"smiles": "CCCCn1c(CCCNC(=O)c2cccc(C)c2)nc2ccccc21", "Potency": "inconclusive: 35.5 µM [activator, single point]"}, {"smiles": "O=C(Cn1cc(C(=O)C2CC2)c2ccccc21)NCc1ccccc1", "Potency": "inconclusive: 10 µM [activator, partial curve, poor fit]"}, {"smiles": "Cn1nc(C(F)(F)F)c(C#N)c1N1CCN(c2ccc(F)cc2)CC1", "activity change, positive = activation": "inactive: -64.1%"}, {"smiles": "CC(=O)N1CCC2(CC1)CCN(c1ncccn1)CC2", "activity change, positive = activation": "inactive: -10.2%"}, {"smiles": "CS(=O)(=O)N(Cc1ccc(F)cc1)Cc1nc2ccccc2c(=O)[nH]1", "Potency": "inconclusive: 0.0126 µM [activator, full curve, poor fit]"}, {"smiles": "CCc1ccc(C(=O)CC2(O)C(=O)N(Cc3ccc(C)cc3)c3ccccc32)cc1", "note": "(centres undefined)", "activity change, positive = activation": "inactive: -9.02%"}, {"smiles": "CCOc1ccccc1N1CC(c2nc3ccccc3n2CCCOc2ccc(OC)cc2)CC1=O", "note": "(centres undefined)", "Potency": "inconclusive: 17.8 µM [activator, single point]"}, {"smiles": "Cc1cccc(CNc2ncnc3ccc(-c4c(C)noc4C)cc23)c1", "Potency": "active: 5.62 µM"}, {"smiles": "O=c1c(-c2ccc(F)cc2)nc2cnc(Nc3ccccc3)nc2n1Cc1cccs1", "activity change, positive = activation": "inactive: -5.57%"}, {"smiles": "C(=C\\c1ccccc1)/C=N/N1CCN(c2ccccn2)CC1", "Potency": "inconclusive: 14.1 µM [activator, single point]"}, {"smiles": "CC(C)C(C(=O)Nc1cccnc1)N1C(=O)c2ccccc2C1=O", "note": "(centres undefined)", "Potency": "inconclusive: 0.0447 µM [activator, full curve]"}, {"smiles": "O=C1C2C3C=CC(C3)C2C(=O)N1c1cccc(-c2nc3ccccc3o2)c1", "note": "(centres undefined)", "Potency": "inconclusive: 35.5 µM [activator, single point]"}, {"smiles": "CN(C)c1ccc(C(C#N)c2ccccc2)nn1", "note": "(centres undefined)", "activity change, positive = activation": "inactive: 6.5%"}, {"smiles": "Cc1ccc(CSC2=Nc3ccccc3C3=NC(=O)CN23)cc1", "Potency": "inconclusive: 4.47 µM [activator, partial curve, poor fit]"}]}]}
